Measurements reported in paper PMC12136788.
Some of the results follow.

T1: UNK ZnF1-6 (called full-length) (human, UniProt Q9C0B0 30-357)
T1 sequence: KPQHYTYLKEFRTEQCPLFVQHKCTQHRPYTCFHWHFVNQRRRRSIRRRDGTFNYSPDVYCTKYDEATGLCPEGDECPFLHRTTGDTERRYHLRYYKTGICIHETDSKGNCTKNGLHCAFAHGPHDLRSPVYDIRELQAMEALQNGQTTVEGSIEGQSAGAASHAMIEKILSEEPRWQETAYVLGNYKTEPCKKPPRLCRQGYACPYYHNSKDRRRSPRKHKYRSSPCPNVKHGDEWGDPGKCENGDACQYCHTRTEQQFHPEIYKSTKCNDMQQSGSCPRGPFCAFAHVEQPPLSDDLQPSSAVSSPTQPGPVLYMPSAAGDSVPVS

B1: chr21:44330462:44330919:-|CDS|ENSG00000160226|control|control|control (ssRNA)
RNA: GGGAGUUCUACAGUCCGACGAUCUUCCCUCUCAGCCAGGGAUGCCUCGAGCAGCCACAGGGGCAGGGUGAGUGGCGGGCCGCUAGGGGCCGCGGCUGCCUCUGCCCACUGCACCCACUGCACAGAAACCGUGGGGAGGGAGCACAACAGAGGAUUGAGCAUCA
B2: chr12:6965432:6965572:-|3pUTR|ENSG00000215021|unk|FALSE|unique (ssRNA)
RNA: GGGAGUUCUACAGUCCGACGAUCUGCGAUGGUCCCCCACACCGGUUCCCUGAACCCCUCUUGGAUUAAGGAAGACUGAAGACUAGCCCCUUUUCUGGGGAAUUACUUUCCUCCUCCCUGUGUUAACUGGGGCUGUUGGGGACACAACAGAGGAUUGAGCAUCA
B3: chr1:19339193:19339294:-|3pUTR|ENSG00000077549|msi1|FALSE|unique (ssRNA)
RNA: GGGAGUUCUACAGUCCGACGAUCGAGACCGUGUGGUUUUUGUUCACCCGGGCCCCCCGUCUUCCUCCCUGUCCCCCCAUUUAUAGGCAUAAAAUCCACUGUCUGCCAGCCUCCCUUCCCUCCCACCUUUUUGGUACAUUGGUGCAACAGAGGAUUGAGCAUCA
B4: chr21:43758806:43758907:+|3pUTR|ENSG00000160209|msi1|FALSE|unique (ssRNA)
RNA: GGGAGUUCUACAGUCCGACGAUCACUUUCUUAAUCCAGUUUUUCAAACUUCUCCCUGUAGACCGUAAGGAUGAAUUCCACAAUAGGAUCCUUUUUAAAAUCGAUUUUAAAUUGUUGCCUAGUCCUGCCAAGGUUAUUAUGUGCCAACAGAGGAUUGAGCAUCA
B5: chr5:78475949:78476050:+|3pUTR|ENSG00000085365|msi1|total|mutant (ssRNA)
RNA: GGGAGUUCUACAGUCCGACGAUCACCCACUGAAAAUUAAUAAUGGUACUUAUGAUUAAAAACGCAUUUAAUACUAACUGCAGCCGUUCUUUCAAGAAUCUUCCGAGAUAAGGAUUGCACAUUGGAAAAGUAAACCAUGUUUCACAACAGAGGAUUGAGCAUCA
B6: chr17:58089832:58089920:+|3pUTR|ENSG00000264364|msi1_unk|total|mutant (ssRNA)
RNA: GGGAGUUCUACAGUCCGACGAUCAUUCCACUGAACUGUGAUUCUAUGGCUUGGGGCGGAGGGUGGGGUGGGGAUGCCUUCUUCCGGGGCCCUGAGAUGUGUUUGUCUGUGGUGUGUGGGAGUGGGGAGCAGAUUUGUCUUGCUCAACAGAGGAUUGAGCAUCA
B7: chr12:909583:909684:+|3pUTR|ENSG00000060237|unk|total|mutant (ssRNA)
RNA: GGGAGUUCUACAGUCCGACGAUCCCGCUCUGUCCUUUACUUAUUGAGACACUUUAACUUUUUCCUUUGUAUUUCCAUUGUAUCCGAUAAAUAAAUGUGAAUGUAAAAUUGUAUAAAUUACUGUACUUGAAUACUUCUGUUUCCCAACAGAGGAUUGAGCAUCA
B8: chr13:24434660:24434761:-|CDS|ENSG00000102699|unk|FALSE|unique (ssRNA)
RNA: GGGAGUUCUACAGUCCGACGAUCCCCUCUGCUUCCUCUCCUUUUCAUUUUCAACCUUCCGCAGCCUCUUUGACUGCCAACCUUAGGCUGCCAAUGGCCUCUGCUUUACCUGAGGCUCUUUGCAGUCAGUCCCGGACUACCCCACAACAGAGGAUUGAGCAUCA
B9: ENSG00000198589:be:win_2451|CDS|ENSG00000198589|bound_else_gene|NA|bound_elsewhere_windowed (ssRNA)
RNA: GGGAGUUCUACAGUCCGACGAUCGAUACUAAAAGUAAUUGCGACCCUACUUCGAAAUUCUCCCCAGUGCCCAGAGAGCAUGGAGGUUCGCAGAGCCUUUCUUUCUGACAUGAUUAAACUUUUUAAUAACAGUAGAGAAAACAGCAACAGAGGAUUGAGCAUCA
B10: ENSG00000112146:stop:overlap|stop_codon|ENSG00000112146|stop_codon|NA|stop_codon (ssRNA)
RNA: GGGAGUUCUACAGUCCGACGAUCACACCCCCUUGUUCUUCGCCAGAGUAAGGAGCUACACAGCUUUCUCAGAAAGGCCUCUGUAGAGCCUCAAGUCCAGUCCUCUAUCACUUUUGCAUGAAUUAAAGUAUAUAGCGCAAAAGACAACAGAGGAUUGAGCAUCA
B11: chr9:96387934:96388035:-|3pUTR|ENSG00000165244|msi1|FALSE|unique (ssRNA)
RNA: GGGAGUUCUACAGUCCGACGAUCAAUAUUUUGUAAAUAUGGACUGCACAGUACAGGGUAGAAAACUACAUAUUGUGGGAAGCUAGAUUUUGCAAGUUUAAUGCAUUCAUUGGAAGCAGUUCUCACAGGAAGCACUUUCUGAAUCAACAGAGGAUUGAGCAUCA
B12: chr17:57974666:57974767:-|CDS|ENSG00000136451|msi1|FALSE|bound_elsewhere (ssRNA)
RNA: GGGAGUUCUACAGUCCGACGAUCGAGCAUGAGAAGUCCAGUAAAUGUUUCAAGUGCAGUUAACAUAACCAGCCCAAUGAACAUAGGGCAUCCUGUAACUAUAACCAGUCCAUUAUCCAUGACCUCUCCUUUAACACUCACUACCAACAGAGGAUUGAGCAUCA
B13: chr15:42745797:42746257:-|CDS|ENSG00000128881|control|control|control (ssRNA)
RNA: GGGAGUUCUACAGUCCGACGAUCAGUCCCAGUGCCUCUCCUCGAAGCUCAUCCUUGCCUCGCACGUCUAGUUCCUCACCAUCUAGGGCUGGACGGCCCCACCAUGACCAGAGGAGUUCGUCCCCACAUCUGGGGAGAAGCAAGCAACAGAGGAUUGAGCAUCA
B14: chr12:106067485:106067586:-|CDS|ENSG00000074590|msi1|FALSE|unique (ssRNA)
RNA: GGGAGUUCUACAGUCCGACGAUCCCUGAAGAAGCGAAGCAACAGCGAGCAUCGCUCUCACAGCACUGGCUUCAUUGAAGGUGUAGUUGGUCCUGCCUUACCCUCUACUUUCAAGAUGGAGCAGGACUUGUGCAGGACUGGCGUCAACAGAGGAUUGAGCAUCA

Biological target: T1, UNK ZnF1-6 (called full-length)
Test: nsRBNS (natural sequence RNA bind-n-seq); RBNS binding buffer (assumed for nsRBNS): 25 mM Tris pH 7.5, 150 mM KCl, 3 mM MgCl2, 0.01% Triton X-100, 500 ug/ml BSA, 20 U/ml SUPERase-In, 4 C; UNK is unkempt and MSI1 is Musashi-1; names of the RNAs are library labels; protein concentration not given here; high values mean tight binding

Binder | binding signal [enrichment R]
B1 | 0.583
B2 | 0.682
B3 | 1.44
B4 | 1.16
B5 | 0.405
B6 | 1.32
B7 | 1.02
B8 | 0.9
B9 | 0.591
B10 | 0.367
B11 | 0.37
B12 | 0.491
B13 | 0.573
B14 | 0.473
